# Whole data set: some 110,000 compounds, median “z-score” near -0.1, cut for the highest 2% near 2. Some of the results follow. Activity calls are given as the source filed them.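 Rule for the calls: active = z-score in the third read window above 3 or below -3; inactive = the rest.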
# Biological target: Metabotropic glutamate receptor 8 (Rattus norvegicus) (UniProt P70579)
# Experiment: rat mGluR8 modulators via GIRK flux, primary screen, cell-based, thallium flux, HTS (AID 488969)
# Details: HEK293 rat mGluR8, GIRK (G protein-gated inwardly rectifying potassium channel) thallium flux, FluoZin2; at 10 µM; stronger effect = higher value; submaximal glutamate (EC20) added with thallium
# Sequence of UniProt P70579 (P70579 whole entry, looked up): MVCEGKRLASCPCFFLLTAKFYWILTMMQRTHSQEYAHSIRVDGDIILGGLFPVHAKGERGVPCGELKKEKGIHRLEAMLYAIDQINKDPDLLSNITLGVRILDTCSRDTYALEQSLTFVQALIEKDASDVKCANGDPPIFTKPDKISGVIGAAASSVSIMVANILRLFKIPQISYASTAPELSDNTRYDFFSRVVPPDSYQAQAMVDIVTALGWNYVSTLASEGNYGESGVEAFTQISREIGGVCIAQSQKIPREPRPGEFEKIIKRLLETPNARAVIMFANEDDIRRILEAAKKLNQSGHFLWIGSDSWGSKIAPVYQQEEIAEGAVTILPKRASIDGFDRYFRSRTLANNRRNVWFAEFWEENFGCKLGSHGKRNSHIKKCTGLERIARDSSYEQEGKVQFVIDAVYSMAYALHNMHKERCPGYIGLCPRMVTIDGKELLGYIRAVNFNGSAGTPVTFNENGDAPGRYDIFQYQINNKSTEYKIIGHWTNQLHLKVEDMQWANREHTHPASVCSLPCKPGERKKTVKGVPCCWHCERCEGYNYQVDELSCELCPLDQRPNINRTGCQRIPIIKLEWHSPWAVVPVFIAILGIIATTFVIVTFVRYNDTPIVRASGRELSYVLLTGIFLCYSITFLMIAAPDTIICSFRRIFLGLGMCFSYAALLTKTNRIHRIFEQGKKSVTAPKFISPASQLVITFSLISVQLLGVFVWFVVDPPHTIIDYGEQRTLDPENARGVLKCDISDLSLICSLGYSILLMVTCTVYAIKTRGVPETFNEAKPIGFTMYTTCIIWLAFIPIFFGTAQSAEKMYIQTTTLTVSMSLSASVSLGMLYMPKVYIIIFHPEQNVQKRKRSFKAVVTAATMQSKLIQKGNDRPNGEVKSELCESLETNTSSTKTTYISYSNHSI
row,Structure (SMILES),z-score
1,CCOC(=O)c1cnc(Nc2nc3ccccc3o2)nc1C,-0.195
2,COc1ccc(-n2c(Cc3cc(=O)[nH]c(=O)[nH]3)nnc2SCC(=O)N2CCC(C)CC2)cc1,-0.449
3,COc1ccccc1C(=O)NCCCn1cc(Br)c(C)n1,-0.16
4,CCC(C)NC(=O)C1CCN(S(=O)(=O)c2ccc(OC)cc2)CC1 (configuration not stated),0.321
5,COc1ccc(NC(=O)C2CCCCN2N)cc1OCC(C)C (configuration not stated),-0.289
6,CCOC(=O)c1c(C)[nH]c(C(=O)COC(=O)CNC(=O)c2ccccc2Cl)c1C,-0.489
7,Fc1cccc(Cl)c1Cn1nnc(-c2ccc3c(c2)OCO3)n1,-0.387
8,Cc1ccc(Cn2ncc3c(N4CCCC4)ncnc32)cc1,-0.0624
9,Cc1ccc2[nH]c(O)c(N=NC(=O)C(C)n3cnc4ccccc4c3=O)c2c1 (configuration not stated),-0.491
10,COc1ccc(/C=N/c2oc(-c3ccccc3)cc2C#N)cc1OC,0.0441
11,COc1cc(C(=O)N(Cc2cccnc2)Cc2cc3cc4c(cc3[nH]c2=O)OCCO4)cc(OC)c1OC,-0.13
12,CCOC(=O)N1CCN(C(=O)c2ccc3c(=O)n(Cc4ccc(OC)cc4)c(=S)[nH]c3c2)CC1,-0.232
13,C/C(N)=C(/C#N)C(=O)COC(=O)C1CCC(C(C)(C)C)CC1 (configuration not stated),0.313
14,Cc1c(C(=O)OCC(=O)NCc2ccc3c(c2)OCO3)cccc1[N+](=O)[O-],-0.182
15,CCOCCCNC(=O)C(NC(=O)CNC(C)=O)c1ccc(Cl)cc1 (configuration not stated),0.335
16,O=c1c2ccccc2nc(-c2ccco2)n1-c1nc2ccccc2s1,-0.026
17,O=C1C2C(c3ccccc3)C=CC(c3ccccc3)C2C(=O)N1c1ccncc1 (configuration not stated),-0.325
18,Cc1cc(C(C)(C)C)nc2[nH]n(-c3ccccc3)c(=O)c12,0.0958
19,CCOC(=O)c1sc2ncnc(NCc3ccco3)c2c1C,active: 14.7

row,Structure (SMILES),z-score
1,CN1CCN(C(=O)c2cccc(COc3cc(Cl)ccc3Cl)c2)CC1,-0.0827
2,CCc1ccccc1N(CC(=O)N1CCN(c2ccccc2F)CC1)S(C)(=O)=O,0.265
3,CC1(C)CC(=O)c2c(-c3cccs3)n[nH]c2C1,-0.203
4,Cc1ccccc1CSCC(=O)c1c(N)n(CC(C)C)c(=O)n(C)c1=O,-0.259
5,Cc1ccc(S(=O)(=O)Cn2nnnc2C(c2ccc(F)cc2)N2CCCCC2)cc1 (configuration not stated),-0.359
6,Cc1cccc2c1CC(C)(C)N=C2C1=C(O)CCCC1=O,-0.000906
7,COc1ccccc1Nc1nnc(SCc2cc(=O)n3cc(C)ccc3n2)s1,-0.145
8,CCCCCCNCCn1cnc2c(N)ncnc21,-0.156
9,CCOc1ccc(N2C(=O)CC(Sc3nc(C)cc(C)n3)C2=O)cc1 (configuration not stated),0.642
10,CCc1nn2cc(C(=O)c3cc(Cl)ccc3O)cnc2c1-c1ccc(F)cc1,-0.0929
11,CCCC(=O)NCCc1ccc(S(N)(=O)=O)cc1,-0.248
12,O=C(CCC(=O)N1CCc2ccccc21)N1CCc2ccccc21,-0.329
13,Nc1nnc(SCCOc2cccc(Br)c2)s1,-0.0231
14,CCC(NC(=O)C1(C)CC1(Br)Br)c1ccc(C)cc1 (configuration not stated),-0.188
15,O=C(Nc1nccs1)C1CCN(S(=O)(=O)c2c(Cl)cccc2Cl)CC1,-0.0529
16,CC1CCCCN1C(=O)Cn1c(=O)n(C2CCCCC2)c(=O)c2ccccc21 (configuration not stated),-2.44
17,C#CCSc1nc(-c2ccccc2)cc(C(F)(F)F)c1C#N,-0.291
18,Nc1c(-c2ccccc2)cnc2ncnn12,-0.133
19,O=C(CSc1nc2[nH]ncc2c(=O)[nH]1)NCc1ccccc1Cl,-0.0848

row,Structure (SMILES),z-score
1,COc1cccc(-c2cc(C(=O)Nc3ccc([N+](=O)[O-])cn3)c3ccccc3n2)c1,-0.354
2,CC1CCCN(Cc2cnc(Cl)s2)C1 (configuration not stated),-0.133
3,CCOC(=O)N1CCN(C(=O)c2ccc(S(=O)(=O)c3ccc(C)cc3)c(NC(C)=O)c2)CC1,-0.0155
4,CCCC(=O)Nc1cccc(Oc2nc(C)cc(C)c2C#N)c1,0.037
5,COCCN(CCOC)Cc1c(C)[nH]c2ccccc2c1=O,-0.106
6,COc1ccc2c(c1)CCc1sc(NC(=O)c3ccco3)nc1-2,0.73
7,Clc1ccc2c(NCc3ccco3)ncnc2c1,-0.0149
8,CCCN1C2CCCC1CC(NC(=S)Nc1cc(C)ccc1C)C2 (configuration not stated),0.489
9,O=C(Nc1ccccc1C(F)(F)F)Nc1cccc2ccccc12,0.33
10,O=C(Cn1cnc2ccccc2c1=O)N(Cc1ccco1)c1ccc(O)cc1,-0.397
11,COc1ccc(NC(=O)c2sc3nc(Cc4ccccc4)cc(C(F)(F)F)c3c2N)cc1OC,-0.288
12,CCC(=O)Nc1nc(=S)ss1,-0.101
13,N#Cc1ccccc1CSc1nc2ccsc2c(=O)n1Cc1ccccn1,-0.577
14,Cc1ccc(N(CC(=O)NCCSc2nc3ccccc3s2)S(=O)(=O)c2ccccc2)c(C)c1,0.00154
15,NC(=O)/C(=C/c1ccco1)NC(=O)c1ccc(Br)o1,0.247
16,CC(=O)NC1=NN(C(C)=O)C(c2sccc2C)S1 (configuration not stated),-0.0119
17,COc1ccc(NC(=O)C2CCCN(S(=O)(=O)c3ccc(C)cc3)C2)cc1OC (configuration not stated),0.23
18,N#C/C(=C/c1ccccc1)c1nn(CCO)c(N)c1C#N,-0.182
19,COc1ccc(S(=O)(=O)N2CCC(C(=O)Nc3cccc(C(C)=O)c3)CC2)cc1C,-0.556

# — PubChem BioAssay AID488969 (Vanderbilt High Throughput Screening Facility, 2010)
